Reference: the supplement of paper PMC11417369
The other results are listed elsewhere or left out.

system: PF3D7_0420300 AP2 domain 1 (GST-tagged); assay: gcPBM binding intensity (ln(normalized median fluorescence intensity)); higher = stronger DNA binding
In short: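 Probes on an Agilent 4 × 180k array were primer-extended, double-stranded and 36 bp long, taken from intergenic genomic regions, with negative controls added. GST-tagged P. falciparum DNA-binding domains from E. coli, about 25 μg on average, were applied to the array for 1 h in 1× PBS containing 1% milk, 0.2 mg/ml BSA, 0.5% salmon testes DNA and 0.03% Triton X-100. Binding intensity, obtained after Alexa488 anti-GST antibody detection and a 488 nm scan, is the highest Masliner-normalised natural-log median intensity across replicate spots of either probe orientation.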

Sequence	gcPBM binding intensity (ln)
TATACAAAATAACTAGCACACATATGTATAAACATA [CACACA_site9236]	9.63
TACATATTTTTATATACACACAATAATTATTATAAA [CACACA_site1659]	9.37
TTTTAAATATGCAGATGTACATTATAATGTTTTATT [XGTACX_site2079]	9.3
GATATGTACTAATACACACACATATAGATTTATATA [CACACA_site6610]	9.7
TATATTTATTATAACACACACATATATATATTATAT [CACACA_site1061]	9.7
ATTTTAAATGTTATGCGTACATATTAATCCTACTTA [XGTACX_site1344]	9.14
TGTTTGAATAACAAAAAAAAAAAAAAAATTAAAAAA [CACACA_negctrl_site1332]	8.79
TTTTAAAAATCTATATGTACACAATACGTCTATAAA [XGTACX_site5787]	8.98
AAAAAAAAAAAAAACACACAAACGCTTTTTTTTTTT [CACACA_site686]	9.35
TATGAAAATGTTCATACACACATAAAAAAAAAAAAA [CACACA_site3236]	9.34
TACACATACACATACACACGCATAGAAACATACGAA [CACACA_site2137]	9.68
AAAAAAAAAAAAAAATGTACATATAAATAAATATAT [XGTACX_site7248]	9.25
TAATATCCATATAAAACACACATCAAGGTTGTTAAC [CACACA_site175]	9.61
ACAACATAGAGGGGCACACACATATATACATAAAAA [CACACA_site6954]	9.9
AATTCATATACAAAAAGTACAAACGAAAAATAAAAA [XGTACX_site2900]	9.43
TATGTGCACCCATATACACACACAAATACAATGATA [CACACA_site8295]	9.81
ATGTTTTATATTATTAATATATATATATATATATAT [CACACA_negctrl_site331]	9.37
GTTATATAAAAATATTGTACATTCTATATAAAGTCA [XGTACX_site4418]	9.05
AGGCATAATTAAAAGTAACAATTATGGAAACGGAGT [GTGCAC_negctrl_site623]	9.55
TTTATTTATTATTAAAGTACTAAATTATATTATTAT [XGTACX_site2565]	9.05
AAAAAAAAAAAAAACACACACATGCACCTCATATTA [CACACA_site556]	9.7
AACGAAAACACTACGTGTACCAAATGTCCTGCCAAC [XGTACX_site5735]	9.37

Sequence	gcPBM binding intensity (ln)
TATTATATTTGTATGTGTACTTATATGGTTGTAATA [XGTACX_site4548]	9.49
ATGGAAAAAAAGCATTGTACATTTAAAGAAAAACAG [XGTACX_site6639]	9.4
AAATATTATCAAACATAAATTATTTTTATCCGTATA [CACACA_negctrl_site771]	9.13
AATGTATATTATTGCACACATATATAAAATTATGCT [CACACA_site1096]	9.45
AAAAAAATATAGATCTGTACATATATAAATATATGT [XGTACX_site511]	9.22
TCTCTAATTTTTAATACACACAAATAAATAAATAAA [CACACA_site216]	9.21
ATATATGTTAATAATTGTACAAATCGATAATATATA [XGTACX_site5076]	9.42
ATCTCTATGATATATACACACAAATATACAAAAAAA [CACACA_site6605]	9.52
ATTTGTGAATATATTCGGTGAACTTTGTTAACACAT [XGTACX_negctrl_site445]	9.18
AATCTAATTAAAATCACACATATATTCGTCGTAATA [CACACA_site5855]	9.21
ATATATATATATATAACACACGTGTATTTATCTGTA [CACACA_site5922]	9.42
AAAAAATTAACGAGTGCACACATATTTAGATAAAAT [CACACA_site8958]	9.61
ATTCCATAAGTAAACACACAAATGCCAAAATTTTAT [CACACA_site7491]	9.51
ATTCAAAAAAAATCAACACACAGTTACATAGCTCAA [CACACA_site2234]	9.62
ATATATATATATATGTGTACACAAAAAATATTATAT [XGTACX_site5741]	9.42
GCACATATATATGAAACACACATGGAAACATCTCTT [CACACA_site3966]	9.48
ATATAAGGATAACCTAGTACATATTATATGAAACAA [XGTACX_site8459]	9.3
TACGGTAAATAGTGTTGTACGATACAATTGTTTTCT [XGTACX_site8118]	9.27
AAAATAAATAAATAAATATATATATATATATATATA [TGCATGCA_negctrl_site558]	9.05
AAGGGGAAAAAAAAAAGTACACAAACATAGGATAAT [XGTACX_site377]	9.82
CAATTAAAATGCAACGGTACACATAAAAAAAATAAA [XGTACX_site6216]	9.61
CCACAAGTATATAGTAGTACAATTTTTTTCTCTTTA [XGTACX_site4403]	9.29
